Test results reported in article PMC13083723 (Patterns, 2026).
In all, about 5,400 compounds went through this assay and about 190 (3.5%) showed an effect of 50% or more. The list shows a part of the results.

tested on: Vero-E6; assay: primary screen, phospholipidosis by LipidTOX staining; higher = more effect of the substance; conditions: 10 µM
In short: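 Single-concentration screen at 10 μM, with DMSO 0.1 v/v % and amiodarone 10 μM as controls. Read-out is LipidTOX Red phospholipid staining, which tolerates aldehyde fixation, in Vero-E6 cells.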

Row | SMILES | result_ITMP
1 | COc1cc(N)c(Cl)cc1C(=O)OCCN1CCCCC1 | -1.25%
2 | Cc1cccc(Cc2c[nH]cn2)c1C | 6.08%
3 | Cc1nc2ccc(Oc3ccc(F)cc3)cc2c(=O)n1C[C@H]1CCCN(C(C)C)C1 | 56.3%
4 | Cc1c(Nc2ncccc2C(=O)O)cccc1C(F)(F)F | -6.08%
5 | COc1ccc(CCO[C@@H]2CCCC[C@H]2N2CC[C@@H](O)C2)cc1OC | -0.1%
6 | CC(ONC(=O)c1cc(C(F)(F)F)cc(C(F)(F)F)c1)C(=O)Nc1ccc(Cl)cc1 (stereo not shown) | -9.45%
7 | OC[C@@H](O)CN1CCN(c2ccccc2)CC1 | -4.45%
8 | N#CC1(c2ccc(NC(=O)c3cccnc3NCc3ccncc3)cc2)CCCC1 | -4.31%
9 | C[C@H]1[C@H](C)CC[C@]2(C(=O)O)CC[C@]3(C)C(=CC[C@@H]4[C@@]5(C)C[C@@H](O)[C@H](O)C(C)(C)[C@@H]5CC[C@]43C)[C@H]12 | -2.32%
10 | O=C1COc2nccc(-c3ccccc3F)c2CN1Cc1cc(C(F)(F)F)cc(C(F)(F)F)c1 | 1.84%
11 | CN1CCN(C(=O)c2cc3cc(Cl)ccc3[nH]2)CC1 | 15.2%
12 | CCCN(CC1CC1)c1nc(C)nc(Nc2c(Cl)cc(Cl)cc2Cl)c1Cl | 0.31%
13 | Cc1ccc2c(c1)c1c(n2CCc2ccc(C)nc2)CCN(C)C1 | 30.6%
14 | CS[C@H]1SC[C@H]2C(=O)N(C)[C@@H](C(C)C)C(=O)OC[C@@H](NC(=O)c3cnc4ccccc4n3)C(=O)N[C@@H](C)C(=O)N(C)[C@@H]1C(=O)N(C)[C@@H](C(C)C)C(=O)OC[C@@H](NC(=O)c1cnc3ccccc3n1)C(=O)N[C@@H](C)C(=O)N2C | 12.2%
15 | O=C1OC2(c3cc(I)c([O-])c(I)c3Oc3c2cc(I)c([O-])c3I)c2c(Cl)c(Cl)c(Cl)c(Cl)c21 | -9.57%
16 | O=C1NC(c2cccc([N+](=O)[O-])c2)=CCN1c1ccccc1O | -5.5%
17 | O=C(O)COc1cccc(CN(Cc2ccc(-n3cccn3)cc2)S(=O)(=O)c2cccnc2)c1 | -0.8%
18 | N#CC(C#N)=Cc1ccc(O)c(O)c1 | -0.51%
19 | C[C@@]12C[C@@]3(O)O[C@@H](O1)[C@]1(COC(=O)c4ccccc4)[C@H]3C[C@@]12O[C@@H]1O[C@H](CO)[C@@H](O)[C@H](O)[C@H]1O | -5.49%
20 | FC(F)(F)Oc1ccc2nc(-c3ccc(OCCOCCOc4ccc(-c5nc6ccc(OC(F)(F)F)cc6[nH]5)nc4)cn3)[nH]c2c1 | -1.49%
21 | CC(C)=CCC/C(C)=C/CC/C(C)=C/CC[C@]1(C)CCc2cc(O)cc(C)c2O1 | -0.24%
22 | CCCNCCc1ccc(NS(=O)(=O)c2ccc(OC(F)(F)F)cc2)cc1 | 33%
23 | CN1C(=O)N(C)C2C1N(C)C(=O)N2C (stereo not shown) | -9.95%
24 | CN(Cc1cc(Br)cc(Br)c1N)C1CCCCC1 | -3.05%
25 | C[C@H](CS)C(=O)N1CCC[C@H]1C(=O)O | -0.88%
26 | CCOC(=O)c1c2c3c(cccc3[nH]c1=O)C(=O)c1ccccc1-2 | -1.87%
27 | CC(C)n1nccc1-c1ncccc1COc1cccc(O)c1C=O | 0.56%
28 | CC1(C)O[C@@H]2C[C@H]3[C@@H]4C[C@H](F)C5=CC(=O)C=C[C@]5(C)[C@H]4[C@@H](O)C[C@]3(C)[C@]2(C(=O)CO)O1 | -2.41%

Row | SMILES | result_ITMP
29 | CC[C@H]1CN2CCc3cc(OC)c(OC)cc3C2C[C@@H]1CC1NCCc2cc(OC)c(OC)cc21 (stereo partly shown) | 7.6%
30 | NCCc1ccc(O)c(O)c1 | -2.47%
31 | Nc1nc(=O)c2c([nH]1)NC[C@H](CNc1ccc(C(=O)N[C@@H](CCC(=O)[O-])C(=O)[O-])cc1)N2C=O | -7.53%
32 | O=C(/C=C/c1cccnc1)NCCCCC1CCN(C(=O)c2ccccc2)CC1 | 1.91%
33 | COc1ccccc1CN[C@H]1CCCN[C@H]1c1ccccc1 | 18.8%
34 | CC(C)C[C@H](NC(=O)OCC1c2ccccc2-c2ccccc21)C(=O)O | -1.06%
35 | O=C(CSc1nc2c(c(=O)n1-c1ccccc1)SCC2)Nc1ccc(-c2ccccc2)cn1 | 3.58%
36 | CC(C)NC[C@@H](O)COc1cccc2ccccc12 [R4A_0000150_002 / SPE_K13994703] | 20.2%
37 | COC(=O)c1cc(OC)c2c(c1-c1c(C(=O)OC)cc(OC)c3c1OCO3)OCO2 | -5.43%
38 | CCNC1(C(N)=O)CCN(c2ncnc3c2nc(-c2ccccc2Cl)n3-c2ccc(Cl)cc2)CC1 | 24.7%
39 | COc1ccc(C2Sc3ccccc3N(CCN(C)C)C(=O)C2OC(C)=O)cc1 (stereo not shown) | -2.48%
40 | O=C(Nc1ccccc1)C12CC1/C(=N\O)c1ccccc1O2 (stereo not shown) | -1.82%
41 | CC(=O)Oc1ccc(C(c2ccc(OC(C)=O)cc2)c2ccccn2)cc1 | -5.23%
42 | CCOC(=O)CC(=O)N1CCSC1COc1ccccc1OC (stereo not shown) | 2.87%
43 | N[C@@H](CC(=O)N1CCn2c(nnc2C(F)(F)F)C1)Cc1n[nH]c2c(F)c(F)ccc12 | -2.29%
44 | C[N+]1(C)C2CCC1CC(OC(=O)C(CO)c1ccccc1)C2 (stereo not shown) | 8%
45 | O=[N+]([O-])c1ccc(O)c2ncccc12 | 26%
46 | N#CC[C@H](C1CCCC1)n1cc(-c2ncnc3[nH]ccc23)cn1 | -4.27%
47 | CS/C(N)=C(C#N)/C(C#N)=C(\N)SC | -2.12%
48 | CCCc1nn(C)c2c(=O)[nH]c(-c3cc(S(=O)(=O)N4CCN(C)CC4)ccc3OCC)nc12 | 1.5%
49 | C[N+](C)(C)CC(=O)[O-] | -1.21%
50 | CCCCOC(=O)c1cc2c(cn1)[nH]c1ccccc12 | -1.41%
51 | COc1cc(NC(=O)Nc2cccc(CNC(=O)O[C@H]3CCOC3)c2)ccc1-c1cnco1 | 0.33%
52 | CN(C[C@@H]1COCCO1)S(=O)(=O)Nc1ccc2ccc3ncc(-c4cnn(C)c4)cc3c(=O)c2c1 | 8.06%
53 | Cc1c(C(=O)N2CCOc3ccc(-c4ccc(N)nc4)cc3C2)ccc(S(C)(=O)=O)c1F | 3.13%
54 | c1ccc2c(c1)Nc1ccccc1S2 | -3.65%
55 | CCCNC(C)(C)COC(=O)c1ccccc1 | 0.66%
